Screen size: about 310,000 compounds; about 2,200 (0.71%) showed an effect of 50% or more. Effects have a minus sign here. This is one part of the list.

The target of the assay is human ether-à-go-go-related gene (hERG) potassium channel (human, UniProt Q12809). Nature of the assay: primary screen, population patch clamp on CHO cells stably expressing hERG.
Chain of human ether-à-go-go-related gene (hERG) potassium channel (Q12809 whole entry, looked up): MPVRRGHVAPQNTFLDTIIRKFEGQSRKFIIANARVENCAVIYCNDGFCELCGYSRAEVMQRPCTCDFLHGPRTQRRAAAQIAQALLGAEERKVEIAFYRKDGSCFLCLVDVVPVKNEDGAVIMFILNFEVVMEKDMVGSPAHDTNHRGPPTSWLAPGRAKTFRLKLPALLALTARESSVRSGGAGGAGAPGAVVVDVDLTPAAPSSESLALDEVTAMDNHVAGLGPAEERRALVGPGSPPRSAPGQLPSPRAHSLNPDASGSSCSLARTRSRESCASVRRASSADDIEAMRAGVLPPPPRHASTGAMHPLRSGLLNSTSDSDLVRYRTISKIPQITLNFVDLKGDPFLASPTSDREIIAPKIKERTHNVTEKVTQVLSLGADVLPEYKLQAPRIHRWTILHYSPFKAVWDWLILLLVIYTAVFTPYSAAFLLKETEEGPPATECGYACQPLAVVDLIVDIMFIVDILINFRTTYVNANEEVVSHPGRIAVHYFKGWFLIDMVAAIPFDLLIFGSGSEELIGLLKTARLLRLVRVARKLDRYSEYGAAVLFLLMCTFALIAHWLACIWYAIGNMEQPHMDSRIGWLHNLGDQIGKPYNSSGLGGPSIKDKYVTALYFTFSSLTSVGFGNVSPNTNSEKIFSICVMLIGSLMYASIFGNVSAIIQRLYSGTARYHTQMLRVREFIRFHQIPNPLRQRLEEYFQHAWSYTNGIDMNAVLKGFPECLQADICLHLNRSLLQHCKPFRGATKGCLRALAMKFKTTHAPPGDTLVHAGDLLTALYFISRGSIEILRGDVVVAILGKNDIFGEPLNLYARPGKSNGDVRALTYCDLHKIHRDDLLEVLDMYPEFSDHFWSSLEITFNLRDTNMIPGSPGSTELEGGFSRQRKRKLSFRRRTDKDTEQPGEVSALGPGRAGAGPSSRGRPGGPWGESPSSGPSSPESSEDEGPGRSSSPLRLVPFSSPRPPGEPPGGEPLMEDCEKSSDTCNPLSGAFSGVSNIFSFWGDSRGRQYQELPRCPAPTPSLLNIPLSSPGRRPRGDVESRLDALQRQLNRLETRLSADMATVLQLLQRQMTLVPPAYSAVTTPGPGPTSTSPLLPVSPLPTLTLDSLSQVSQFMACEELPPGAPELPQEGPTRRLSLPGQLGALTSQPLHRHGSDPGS
Consider `Cc1ccc(N(CC(=O)NC(C)C)C(=O)CCC(=O)Nc2nccs2)cc1C`, for which the “hERG current change (%, negative = inhibition) at 1uM” value is recorded as 2.49%. On to `O=C(NCc1ccccc1Cl)c1ccc2c(=O)n(CC3CCCO3)c(=S)[nH]c2c1` (centres unmarked), for which the “hERG current change (%, negative = inhibition) at 1uM” value is 13.5%. Under `CN(CCOc1ccc(-c2ccn(S(=O)(=O)c3c(Cl)cccc3Cl)n2)cc1)c1ccccn1` stands 11.3%.

`Cc1cc(C)cc(N(C(=O)c2csnn2)C(C(=O)NC(C)(C)C)c2cccnc2)c1` (centres unmarked): the “hERG current change (%, negative = inhibition) at 1uM” value is recorded as -1.11%. Take `CC(=O)c1c(N2CCN(c3ccc(F)cc3)CC2)nc(=S)n(Cc2ccccc2)c1C`: the “hERG current change (%, negative = inhibition) at 1uM” value is 4.06%.

As for `CCCCn1nnc(NC(=O)CCC)n1`, the “hERG current change (%, negative = inhibition) at 1uM” value is 2.38%.

Take `O=C(CCc1nc2ccccc2c(=O)[nH]1)NCC(=O)Nc1ccc(F)c(F)c1`: the “hERG current change (%, negative = inhibition) at 1uM” value was found to be 10.3%. The value for `COc1cc(/C=C2/SC(=O)N(Cc3ccccc3Cl)C2=O)ccc1OCc1ccncc1` was 7.6%; that for `COc1ccc(CC/C(=N\O)C2(O)CCCCC2)cc1` was 11.5%.

For `CCN(CC(=O)Nc1ccccc1OC)C(=O)c1ccc(NS(=O)(=O)c2ccc(C(C)=O)cc2)cc1`, the “hERG current change (%, negative = inhibition) at 1uM” value is 3.33%.

As to `O=C(C[n+]1ccccc1)N/N=C/c1ccccc1C(F)(F)F.[Cl-]`, the “hERG current change (%, negative = inhibition) at 1uM” value is recorded as 12.8%. As to `O=C(Cn1cnc2c(cnn2-c2ccccc2)c1=O)c1ccc(Cl)cc1`, the “hERG current change (%, negative = inhibition) at 1uM” value is listed as 11.9%. The value for `CC1(C)CC(=O)C2(CC3=C(CC(C)(C)CC3=O)O2)C(=O)C1` was -12.4%. Regarding `O=C(CNC(=O)c1ccc(Cl)cc1Cl)OCC(=O)N1CCCC1`, the “hERG current change (%, negative = inhibition) at 1uM” value amounted to 3.95%.

For the compound `COc1ccc(CCNC(=O)CCn2cccc2)cc1OC`, the “hERG current change (%, negative = inhibition) at 1uM” value amounted to 11.1%. Under `CCOc1ccccc1-n1c(SCC(N)=O)nnc1-c1ccc(O)cc1` stands -0.141%. On to `Cc1ccc(SCCNC(=O)c2cccc([N+](=O)[O-])c2C)cc1`, for which the “hERG current change (%, negative = inhibition) at 1uM” value stood at 8.61%. Take `O=C(Nn1cnc2ccccc2c1=O)c1ccccc1F`: the “hERG current change (%, negative = inhibition) at 1uM” value was -1.5%.

`COc1ccc(OC)c(S(=O)(=O)N2CCCC2C(=O)N2CCc3ccccc3C2)c1` (centres unmarked): the “hERG current change (%, negative = inhibition) at 1uM” value is -6.88%. Under `S=c1[nH]nc(-c2ccco2)n1/N=C/c1cccs1` stands 19.2%. Turning to `Cc1onc(-c2c(F)cccc2Cl)c1C(=O)Nc1nccs1`, the “hERG current change (%, negative = inhibition) at 1uM” value is 6.96%. For the compound `CCn1c(SCC(=O)Nc2ccccc2N2CCCCC2)nc2c1c(=O)n(C)c(=O)n2C`, the “hERG current change (%, negative = inhibition) at 1uM” value turned out to be 1.86%. Regarding `O=C(NC(=S)N1CCOCC1)c1ccccc1Cl`, the “hERG current change (%, negative = inhibition) at 1uM” value came out at 15.4%. Take `CCOC(=O)c1c(-c2ccc(C)cc2)csc1NC(=O)CCN1CCOCC1`: the “hERG current change (%, negative = inhibition) at 1uM” value is 6.99%. Take `CCCCn1c(N)c(N(CCOC)C(=O)COC(=O)COc2cc(C)c(Cl)cc2C(C)C)c(=O)[nH]c1=O`: the “hERG current change (%, negative = inhibition) at 1uM” value turned out to be 4.04%. In the case of `Cc1ccc(N(C(C)C(=O)O)S(=O)(=O)c2cccnc2)cc1` (centres unmarked), the “hERG current change (%, negative = inhibition) at 1uM” value stood at 14.7%.

For the compound `CCCOc1ccc(Cc2c(O)nc(SC)[nH]c2=O)cc1C`, the “hERG current change (%, negative = inhibition) at 1uM” value was found to be 14.8%. The value for `Nc1nc(SCC(=O)Nc2cc(S(=O)(=O)N3CCOCC3)ccc2Cl)n[nH]1` was 9.37%; that for `O=C(Nc1ccc2c(c1)nc1n2CCOC1)c1ccccc1` was 5.91%. For `OC(CN1CCOCC1)C12CC3CC(CC(C3)C1)C2` (centres unmarked), the “hERG current change (%, negative = inhibition) at 1uM” value is reported as 8.31%.

As to `O=C(NCc1cccnc1)c1nc(-c2cccs2)no1`, the “hERG current change (%, negative = inhibition) at 1uM” value worked out at 2.19%.

With `CC(C)n1cnc2c(Nc3ccc(C(=O)O)cc3)nc(Cl)nc21`, the “hERG current change (%, negative = inhibition) at 1uM” value turned out to be 16%. As to `CC(OC(=O)CCc1nc2ccccc2c(=O)[nH]1)C(=O)Nc1ccc2c(c1)OCO2` (centres unmarked), the “hERG current change (%, negative = inhibition) at 1uM” value is given as 14.8%. The value for `Cc1nc(C)n(CC(C)C(=O)N2CCN(S(=O)(=O)c3ccccc3)CC2)n1` (centres unmarked) was 13.5%; that for `COC(=O)CCCC1=CC2=C(c3ccccc3)C(=O)C(C)(OC(=O)C3CCCC3)C(=O)C2=CN1Cc1ccc2c(c1)OCO2` (centres unmarked) was 15.3%; that for `CCC(=O)Nc1cccc(SC)c1` was 22%.

Consider `O=c1c2ccccc2nc2ccc(N3CCOCC3)nn12`, for which the “hERG current change (%, negative = inhibition) at 1uM” value was 0.277%. For `COc1ccc2oc(=O)c(-c3nc(C)cs3)cc2c1`, the “hERG current change (%, negative = inhibition) at 1uM” value was determined as 4.92%. The value for `O=C(CSc1nc(-c2ccc(F)cc2)cs1)NC(=O)NCc1ccco1` was 4.13%; that for `Cc1ccccc1-n1c(SCC(=O)Nc2ccc3c(c2)OCO3)nnc1-c1ccccn1` was -9.48%. With `CC(=O)N1c2ccc(S(=O)(=O)NCC3CCC(C(=O)Nc4cccc(C)n4)CC3)cc2CC1C` (centres unmarked), the “hERG current change (%, negative = inhibition) at 1uM” value was -5.64%. The value for `Cc1c(C(=O)NNC(=O)Nc2ccc([N+](=O)[O-])cc2)oc2ccccc12` was 14.2%. Under `CCCNC(=O)Cc1ccsc1` stands 14.4%. For `CCOC(=O)Cc1c(C)nc2cc(C)nn2c1C`, the “hERG current change (%, negative = inhibition) at 1uM” value stood at 6.15%.
